Source: PubChem BioAssay AID588795 (National Center for Advancing Translational Sciences (NCATS), 2011)
The whole screen tested about 390,000 compounds, of which about 1,400 (0.36%) were called active. Inconclusive means that the source gave no clear call. Such entries were picked first, then a sample of the others. Calls follow the shape of the dose curve; as a rule, active = well fitted inhibition curve with a large enough effect; inconclusive = small, poorly fitted or top-dose-only effect; inactive = no such curve, though single readings can be large or run the other way. Potencies beside an inconclusive call are fits to weak or partial responses and may not hold up.

What follows are molecules tested against Flap endonuclease 1 (Homo sapiens) (UniProt P39748) (assay: qHTS Assay for the Inhibitors of Human Flap endonuclease 1 (FEN1).). Details: Recombinant FEN1 flap cleavage, fluorescence, 15 min; series mostly up to 114 µM; activity change, negative = inhibition: at the top concentration.
Chain of UniProt P39748 (P39748 whole entry, looked up): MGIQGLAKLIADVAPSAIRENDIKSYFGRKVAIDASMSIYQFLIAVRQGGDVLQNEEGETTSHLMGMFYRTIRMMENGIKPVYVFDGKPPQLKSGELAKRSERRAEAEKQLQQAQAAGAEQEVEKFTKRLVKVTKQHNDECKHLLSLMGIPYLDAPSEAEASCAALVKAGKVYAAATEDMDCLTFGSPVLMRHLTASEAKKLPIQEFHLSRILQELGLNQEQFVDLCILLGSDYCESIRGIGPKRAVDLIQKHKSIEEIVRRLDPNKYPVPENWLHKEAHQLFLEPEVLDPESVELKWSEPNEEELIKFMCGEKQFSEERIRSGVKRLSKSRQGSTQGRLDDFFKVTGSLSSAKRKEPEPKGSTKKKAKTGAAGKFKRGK
Outline: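 Nuclease activity of 10 nM FEN1 was measured after 15 min of room-temperature exposure to titrated compounds, by adding 50 nM flap substrate and reading plates at 0 and 15 min.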
% is scaled to controls: 0 for no effect and ±100 for the full control effect; potency is read from the fitted curve at half-maximal effect; tags tell the direction and shape of the fitted curve.
Also: nearly all actives have a fitted effect of over 65% in size.

**Q.** Which Potency does the source give for CN(C)CCCNC(=O)c1ccc2[nH]c3ccccc3c2c1 here?
**A.** inconclusive: 56.2 µM [inhibitor, partial curve, poor fit]

**Q.** How did the Potency turn out when CCCN(C(=O)CCc1nc(-c2ccc(C)cc2)no1)c1ccc(OCC)cc1 was run?
**A.** inconclusive: 56.2 µM [inhibitor, partial curve, poor fit]

**Q.** How did the Potency turn out when COc1ccc(Nc2c(-c3ccc(OC)cc3)nc3cnccn23)cc1 was run?
**A.** inconclusive: 89.1 µM [inhibitor, partial curve, poor fit]

**Q.** With COc1ccc(C(=O)N2CCC(C(=O)Nc3ccc(C)cc3)CC2)cc1 as the molecule, how does the Potency read?
**A.** inconclusive: 89.1 µM [inhibitor, single point]

**Q.** How did the Potency turn out when COc1ccc2c(c1)c(=O)oc1c(C)c(OCc3cc(C(=O)O)oc3C)ccc12 was run?
**A.** inconclusive: 44.7 µM [inhibitor, partial curve, poor fit]

**Q.** CCN(CC)c1ccc(/C=C(\C#N)C(=O)c2ccc(Br)cc2)cc1 was tested. Which Potency did it give?
**A.** inconclusive: 22.4 µM [inhibitor, partial curve, poor fit]

**Q.** Which Potency does the source give for COc1ccc(NC(=O)NCC(C)CSc2ccc(C)cc2)c(OC)c1 (stereo not given) here?
**A.** inconclusive: 25.1 µM [inhibitor, partial curve, poor fit]

**Q.** How did the Potency turn out when OC(CNCCc1ccc(C(F)(F)F)cc1)COc1cccc2ccccc12 (stereo not given) was run?
**A.** inconclusive: 50.1 µM [inhibitor, partial curve, poor fit]

**Q.** How did the “activity change, negative = inhibition” value turn out when CCCCn1cc(S(=O)(=O)c2ccc(OC)cc2)c(=O)c2cc(F)c(N3CCOCC3)cc21 was run?
**A.** inactive: 3.85%

**Q.** How did the “activity change, negative = inhibition” value turn out when CCOc1ccc(NC(=O)N(Cc2cn(CC)c3ccccc23)C2CCCCCC2)cc1 was run?
**A.** inactive: -18.8%

**Q.** CCOCCCn1c(SCC(=O)Nc2ccc3[nH]c(=O)[nH]c3c2)nc2ccccc2c1=O was tested. Which Potency did it give?
**A.** inconclusive: 50.1 µM [inhibitor, partial curve, poor fit]

**Q.** CCN(CC)CCC(c1ccc(N(C)C)cc1)c1c(OC)cc(OC)c2c1OC(=O)CC2c1ccc(N(C)C)cc1 (stereo not given) was tested. Which “activity change, negative = inhibition” value did it give?
**A.** inactive: -5.41%

**Q.** How did the Potency turn out when C#CCOCCOCCOCCNc1nc(N2CCN(C(=O)CCCCCCCCCCNC(=O)Cn3cc(CCCCCN)nn3)CC2)nc(N2CCN(C(=O)CCCCCCCCCCNC(=O)[C@H](CO)n3cc(CCCSC)nn3)CC2)n1 was run?
**A.** active: 39.8 µM

**Q.** With CCOC(=O)C1Nc2ccc(OC(F)(F)F)cc2C2C=CCC12 (stereo not given) as the molecule, how does the Potency read?
**A.** inconclusive: 50.1 µM [inhibitor, partial curve, poor fit]

**Q.** Which Potency does the source give for O=C(OCC(=O)N1CCCc2ccccc21)c1cnc(Cl)c(Cl)c1 here?
**A.** inconclusive: 100 µM [inhibitor, partial curve, poor fit]

**Q.** Which Potency does the source give for CCC(CO)Oc1cc(NCc2cccc(C)c2)c2ncn(C(C)C)c2c1 (stereo not given) here?
**A.** inconclusive: 39.8 µM [inhibitor, single point]

**Q.** Cc1ccccc1NC(=O)CSc1n[nH]c(-c2ccco2)n1 was tested. Which “activity change, negative = inhibition” value did it give?
**A.** inactive: 8.11%

**Q.** How did the “activity change, negative = inhibition” value turn out when COC(=O)C1=C(C)N2C(=O)CSC2=NC1c1ccc2c(c1)OCO2 (stereo not given) was run?
**A.** inactive: -0.99%

**Q.** COc1cc([N+](=O)[O-])ccc1NC(=O)C1CCCN(S(C)(=O)=O)C1 (stereo not given) was tested. Which “activity change, negative = inhibition” value did it give?
**A.** inactive: 14.1%

**Q.** With CC1CCN(S(=O)(=O)c2ccc(NC(=O)Cc3cccs3)cc2)CC1 as the molecule, how does the “activity change, negative = inhibition” value read?
**A.** inactive: -12.5%

**Q.** Cc1nnc2c3ccccc3nc(Nc3ccccc3C(=O)O)n12 was tested. Which Potency did it give?
**A.** inconclusive: 79.4 µM [inhibitor, partial curve, poor fit]

**Q.** O=C(CSc1nnc(Nc2ccccc2F)s1)NCc1ccco1 was tested. Which “activity change, negative = inhibition” value did it give?
**A.** inactive: -7.99%

**Q.** NC(=O)c1c(NC(=O)CN2CCCC2)sc2c1CCCC2 was tested. Which “activity change, negative = inhibition” value did it give?
**A.** inactive: 6.11%

**Q.** COc1cccc(-c2cc(=O)c3cc(NC(C)=O)ccc3[nH]2)c1 was tested. Which Potency did it give?
**A.** inconclusive: 79.4 µM [inhibitor, partial curve, poor fit]

**Q.** Which Potency does the source give for Oc1c(Br)cc(Br)c(/C=N/n2c(-c3ccccc3)n[nH]c2=S)c1Br here?
**A.** inconclusive: 50.1 µM [inhibitor, partial curve, poor fit]

**Q.** Which “activity change, negative = inhibition” value does the source give for CCOc1ccc(-n2c(N)c(C(=O)NCc3ccco3)sc2=S)cc1 here?
**A.** inactive: -9.86%

**Q.** For COc1ccc(/C=N\NC(=O)c2ccccc2[N+](=O)[O-])cc1COc1c(F)c(F)c(F)c(F)c1F, which Potency is on record?
**A.** inconclusive: 39.8 µM [inhibitor, partial curve, poor fit]

**Q.** CN(C)c1nc(NCc2ccccc2)nc(N/N=C/c2cccc(Br)c2)n1 was tested. Which “activity change, negative = inhibition” value did it give?
**A.** inactive: -17.9%

**Q.** For CCN1CCN(Cc2cc(=O)oc3ccc(Cl)cc23)CC1, which “activity change, negative = inhibition” value is on record?
**A.** inactive: -0.899%

**Q.** Which Potency does the source give for Cc1ccnc(NS(=O)(=O)c2ccc(NC(=O)Cc3cccs3)cc2)n1 here?
**A.** inconclusive: 50.1 µM [inhibitor, partial curve]

**Q.** How did the Potency turn out when Cc1cc(C)c(S(=O)(=O)NCCn2c(C)cc3ccccc32)c(C)c1 was run?
**A.** inconclusive: 79.4 µM [inhibitor, partial curve]

**Q.** Which “activity change, negative = inhibition” value does the source give for COc1cccc(C(=O)N/N=C(\C)c2ccc(NC(=O)Cc3ccccc3)cc2)c1OC here?
**A.** inactive: 0.748%

**Q.** FC(F)(F)c1nc2cc3nc4ccccc4[nH]c3cc2n1 was tested. Which Potency did it give?
**A.** inconclusive: 44.7 µM [inhibitor, partial curve, poor fit]

**Q.** With N#Cc1c(N2CCCCC2)nc(N)c2c(N)nc(SCC(=O)O)cc12 as the molecule, how does the Potency read?
**A.** inconclusive: 56.2 µM [inhibitor, partial curve, poor fit]

**Q.** O=C(Nc1ccccc1C(=O)O)c1cccc(C(=O)Nc2ccccc2C(=O)O)c1 was tested. Which Potency did it give?
**A.** inconclusive: 89.1 µM [inhibitor, single point]

**Q.** Which Potency does the source give for C/C(=N/NC(=O)CNc1ccc(C)cc1)c1ccc(Cl)cc1 here?
**A.** inconclusive: 89.1 µM [inhibitor, partial curve, poor fit]

**Q.** CCN(Cc1cccc(S(=O)(=O)O)c1)c1ccc(C(=C2C=CC(=[N+](CC)Cc3cccc(S(=O)(=O)O)c3)C=C2)c2ccccc2S(=O)(=O)[O-])cc1 was tested. Which Potency did it give?
**A.** active: 31.6 µM

**Q.** For C#CCOCCOCCOCCNc1nc(N2CCN(C(=O)CCCCCCCCCCNC(=O)Cn3cc(C[C@@H](C)O)nn3)CC2)nc(N2CCN(C(=O)CCCCCCCCCCNC(=O)[C@H](CCCN=C(N)N)n3cc(C[C@@H](C)CC)nn3)CC2)n1, which Potency is on record?
**A.** active: 89.1 µM

**Q.** For COCCNc1cc(C)c(C#N)c2nc3ccccc3n12, which Potency is on record?
**A.** inconclusive: 89.1 µM [inhibitor, partial curve, poor fit]

**Q.** Which “activity change, negative = inhibition” value does the source give for OC(CBr)C[n+]1cc(Br)cc2ccccc21 (stereo not given) here?
**A.** inactive: -13.3%

**Q.** For COc1ccc(NC(=O)c2sc3nc4c(cc3c2N)CCCCCC4)cc1Cl, which “activity change, negative = inhibition” value is on record?
**A.** inactive: -7.26%

**Q.** For CCc1nn(CC(=O)NCCN(CC)CC)c(=O)c2cc3occc3n12, which “activity change, negative = inhibition” value is on record?
**A.** inactive: -23.7%

**Q.** How did the “activity change, negative = inhibition” value turn out when Cc1noc(C)c1C(=O)OCC(=O)Nc1ncc(Cl)c(C)c1Cl was run?
**A.** inactive: -0.904%

**Q.** With CCCCN(CC)CCNC(=O)c1cc2c(=O)n(C)c3ccccc3c2s1 as the molecule, how does the Potency read?
**A.** inconclusive: 39.8 µM [inhibitor, partial curve]

**Q.** For CCOc1cc(/C=C(/C#N)C(=O)Nc2ccc(OC)cc2)ccc1OCc1ccc(C(=O)O)cc1, which Potency is on record?
**A.** inconclusive: 79.4 µM [inhibitor, partial curve]

**Q.** Cc1ccc(S(=O)(=O)Nc2ccc(NC(=O)c3c(F)c(F)c(F)c(F)c3F)cc2)cc1 was tested. Which Potency did it give?
**A.** inconclusive: 31.6 µM [inhibitor, partial curve, poor fit]

**Q.** How did the “activity change, negative = inhibition” value turn out when CN(C)c1ccc(S(=O)(=O)NCC(=O)NCc2ccccc2)cc1[N+](=O)[O-] was run?
**A.** inactive: -13.7%

**Q.** CCc1nnc(NS(=O)(=O)c2ccc(NC(=S)NC(=O)/C=C/c3ccc(C(C)C)cc3)cc2)s1 was tested. Which Potency did it give?
**A.** inconclusive: 89.1 µM [inhibitor, single point]

**Q.** For O=C1NC[C@H](c2ccccc2)OC(=O)[C@@H](Cc2ccc(F)cc2)CC/C=C/C[C@H]1CC(=O)N(CCO)Cc1ccccc1, which Potency is on record?
**A.** inconclusive: 56.2 µM [inhibitor, partial curve, poor fit]

**Q.** Which “activity change, negative = inhibition” value does the source give for Cc1ccc(C(=O)CC(SCC(=O)O)c2ccc([N+](=O)[O-])cc2)cc1 (stereo not given) here?
**A.** inactive: 25.6%

**Q.** O=C(COc1cc2oc(=O)cc(-c3ccccc3)c2cc1Cl)NC(Cc1c[nH]c2ccc(O)cc12)C(=O)O (stereo not given) was tested. Which Potency did it give?
**A.** inconclusive: 39.8 µM [inhibitor, single point]

**Q.** O=C(C[n+]1cc(Br)cc(Br)c1)c1ccc2ccccc2c1 was tested. Which “activity change, negative = inhibition” value did it give?
**A.** inactive: -7.9%

**Q.** Which “activity change, negative = inhibition” value does the source give for COc1ccc2cc3cc(C(=O)NCCc4ccccc4)sc3nc2c1Cl here?
**A.** inactive: 25.3%

**Q.** With Cc1ccc([N+](=O)[O-])cc1S(=O)(=O)Nc1ccc(C(=O)NCC2CCCO2)cc1 (stereo not given) as the molecule, how does the “activity change, negative = inhibition” value read?
**A.** inactive: 0.0406%

**Q.** With COc1ccc2ccccc2c1C1CC(=O)N2CN(C3CCCCC3)CSC2=C1C#N (stereo not given) as the molecule, how does the Potency read?
**A.** inconclusive: 7.94 µM [inhibitor, full curve, poor fit]

**Q.** CC(C)(C)c1ccc(S(=O)(=O)c2cnc(SCC(=O)Nc3ccc(F)c(Cl)c3)[nH]c2=O)cc1 was tested. Which Potency did it give?
**A.** active: 50.1 µM

**Q.** With Cc1cc(C)cc(NC(=O)C(=O)NCCc2c[nH]c3ccccc23)c1 as the molecule, how does the Potency read?
**A.** inconclusive: 70.8 µM [inhibitor, partial curve, poor fit]

**Q.** With COc1ccc(-c2cnnc(N/N=C/c3ccc(O)c(O)c3)n2)cc1 as the molecule, how does the Potency read?
**A.** inconclusive: 89.1 µM [inhibitor, single point]

**Q.** O=C(Cc1ccc(Cl)cc1)c1ccc(O)cc1 was tested. Which “activity change, negative = inhibition” value did it give?
**A.** inactive: -0.643%

**Q.** COc1ccc(C)cc1S(=O)(=O)Nc1cccc(-c2ccc(N3CCCC3)nn2)c1 was tested. Which “activity change, negative = inhibition” value did it give?
**A.** inactive: 3.16%

**Q.** COc1cccc(OC)c1C(=O)N1CCN(c2ccccn2)CC1 was tested. Which Potency did it give?
**A.** inconclusive: 0.251 µM [inhibitor, full curve]

**Q.** O=C(Nc1ccc(NC(=S)NC(=O)c2cccs2)cc1)c1ccco1 was tested. Which Potency did it give?
**A.** inconclusive: 79.4 µM [inhibitor, single point]

**Q.** For O=C(O)c1cc2cccc([N+](=O)[O-])c2[nH]1, which Potency is on record?
**A.** inconclusive: 56.2 µM [inhibitor, partial curve, poor fit]

**Q.** For O=C(N/N=C\c1cccnc1)c1cc(-c2ccccc2)nc2c(Cl)cccc12, which Potency is on record?
**A.** inconclusive: 89.1 µM [inhibitor, partial curve, poor fit]

**Q.** Which Potency does the source give for O=C(O)CCNc1cc(N2CCN(C(=O)c3ccco3)CC2)c2noc3c2c1C(=O)c1ccccc1-3 here?
**A.** active: 31.6 µM
